In the RNAGym collection of RNA variant scans (doi:10.7554/elife.90254):
Read counts are not given, so values of variants with three or more changes are uncertain.

B1: LINE1-full (parent)
chain: UACGUAGGUGGUUUUCCCCUGAUAGUGCUAAGGGGGCCUGGAAGUUUGGACUGGGCAGAGCUCAACACAGCGUGGCAAAGUGGCUGUGGCUAGACUGCCUCUCUGGAUUCCUCGUCACUCAGCAGGGCAUCUCUGAGAGAAAUGCC

Variants of: B1
Assay: self-cleavage, relative activity (ratio to wild type); higher = more cleavage; in vitro, sequencing; the parent is a self-cleaving ribozyme

Row | Variant | self-cleavage
1 | CACGUAGGUGGUUUUCCCCUGAUAGUGCUAAGGGGGCCUGGUAGUUUGGACUGGGCGGAGCUCAACACAGCGUGGCAAAGUGGCUGAGGCUAGACUGCCUCUCUGGAUUCCUCGUCACUCAGCAGGGCAUCUCUGAGAGAAAUGCC [U1C A42U A57G U87A] | 0.04
2 | CACGUGGGUGGUUUUCCCCUGAUAGUGCUAAGGGGGCCAGGAAGUUUGGACUGGGCAGGGCUCAACACAGCGUGGCAUAGUGGCUGUGGCUAGACUGCCUCUCUGGGUACCUCGUCACUCAGCAGGGCAUCUCUGAGAGAAAUGCC [U1C A6G U39A A59G A78U A107G U109A] | 0
3 | CACGUAGGUGGUUUUCCCCUGAUAGUGCUGAGGGGGCCUGGAAGUUUGGACUGGGCAGAGCUCGACACAGCGUGGCAAAGUGGCUGUGGCUAGGCUGCCUCUCUGGAUUCCUCGUCACUCAGCAGGGCAUCUCUGAGAGAAAUGCC [U1C A30G A64G A94G] | 0
4 | CACGUAGGUGGUUUUCCCCUGAUAGUGCUAAGGGGGCCUGGUAGUUUGGACUGGGCAGAGCUCUACACAGCGUGGCAAAGUGGCUGUGGCUAGACUGCCUCUCUGGAUUCCUCGUCACUCAGCAGGGCAUCUCUGAGAGAAAUGCC [U1C A42U A64U] | 0.19
5 | CACGUUGGUGGUUUUCCCUUGAUAGUGCUAAGGGGGCCUGGAAGUUUGGACUGGGCAGAGCUCAACACAGCGUGGCAAAGUGGCUGUGGCUAGACUGCCUCUCUGGAUUCCUCGUCACUCAGCAGGGCAUCUCUGAGAGAAAUGCC [U1C A6U C19U] | 0.8
6 | CACGUAGGUGGUUUUCCCCUGAUUGUGCUAAGGGGGCCCGGAAGUUUGGACUGGGCAGUGCUCAACACUGCGUGGCAAAGUGGCUGUGGCUAGACUGCCUCUCUGGAUUCCUCGUCACUCAGCAGGGCAUCUCUGAGAGAAAUGCC [U1C A24U U39C A59U A69U] | 0.13
7 | CGCGUAGGUGGUUUUCCCCUGAUAGUGCUAAGGGGGCCUGGAAGUUUGGACUGGGAAGAGCUCAACACAGCGUGGCAAAGUGGCUGUGGCUAGACUGCCUCUCUGGAUUCCUCGUCACUCAGCAGGGCUUCUCUGAGAGAAAUGCC [U1C A2G C56A A129U] | 0.25
8 | CACGUAGGUGGUUUUCCCCUGGUAGUGCUAAGGGGGCCUGGAAGUUUGGACUGGGCAGAGCUCAACACAGCGUGGCAAAGUGGCUGUGGCUAGACUGGCUCCCUGGAUUCCUCGCCGCUCAGCAGGGCAUCUCUGAGAGAGAUGCC [U1C A22G C98G U102C U115C A117G A141G] | 0
9 | CACGUAGGUGGUUUUCCCCUGAUAGUGCUAAGGGGGCCUGGAAGUUUGGACUGGGCAGAGCUCUACACAGCGUGGCAAAGUGGCUGUGGCUAGACUGCCUCUCUGGAUUCCUCGUCACUCAGCAGGGCAUCUCUGAGAGAAAAGCC [U1C A64U U143A] | 0.27
10 | CGCGUAGGUGGUCUUCCCCUGAUAGUGCCAAGGGGGCCUGGAAGUUUGGACUGGGCAGAGCUCAACACAGCGUGGCAAAGUGGCUGUGGCUAGACUCCCUCUCUGGAUUCCUCGUCACUCAGCAGGGCAUCUCUGAGAGAAAUGCC [U1C A2G U13C U29C G97C] | 0.32
11 | CACGUAGGUGGUUUUCCCCUGAUAGUGCUAAGGGGGCCUGGAAGUUUGGACUGGGCAGAGCUCAGCACAGCGUGGCAAAGUGGCUGUGGCUGGACUGCCUCUCUGGAUUCCUCGUCACUCAGCAGGGCAUCUCUGAGAGAAAUGCC [U1C A65G A92G] | 0.2
12 | CACGUAGGUGGUUUUCCCCUGGUAGCGCUAAGGGGGCCUGGAAGUUUGGACUGGGCAGAGCUCAACACGGCGUGGCAAAGAGGCUGUGGCUAUACUGCCUCUCUGGAUUCCUCGUCACUCAGCAGGGCACCUCUGAGAGAAAAGCC [U1C A22G U26C A69G U81A G93U U130C U143A] | 0
13 | CACGUUGGUGGUUUUCCCCUGAUAGUGCUAAGGGGGCCUGGAAGUUUGGACUGGGCAGAGCUCAACACAGCGUGGCAAAGUGGCUGAGGCUAGACUGCCUCUCUGGAUUCCUCGUCACACAGCAGGGCAUCUCUGAGAGAAAUGCC [U1C A6U U87A U119A] | 0.13
14 | CGCGUAGGUGGUUUUCCCCUGAUAGUGCUAAGGGGGCCUGGAAGUUUGGACUGGGCAGAGCUCAACACAGCGCGGCAAAGUGGCUUUGGCUAGACUGCCUCUCUGGAUUCCUCGACACUCAGCAGGGCAUCUCUGAGAGAAAUGCC [U1C A2G U73C G86U U115A] | 0.2
15 | CACGUAGGUGGUUUUCCCCUGAUAGUGCUAAGGGGGCCUGGAAGUUUGGACUGGGCGGAGCUCAACACAGCAUGGCAAAGUGGCUGUGGCUAGACUGCCUCUCUGGAUUCCUCGUCAUUCAGCAGGGCAUCUCUGAGAGAAAUGCC [U1C A57G G72A C118U] | 0.98
16 | CACGUAGGUGGUUUUCCCCUGAUGGUGCUAAGGGGACCUGGGAGUUUGGACUGGGCAGAGCUCAACACAGCGUGGCUAAGUGGCUGUGGCUAGACUGCCUCUCUGGAUUCCUCGUCAUUCAGCAGGGCAUCCCUGAGGGAAAUGCC [U1C A24G G36A A42G A77U C118U U132C A138G] | 1.15
17 | CACGUAGGUGGUUUUCCCCUGAUAGUGCUUAGGGGGCCUGGAAGUUUGGACUGGGCAGGGCUCAACACAGCGUGGCGAAGUGGCUGUGGCUAGACUGCCUCUCUGGAUUCCUCGUCACUCAGCAGGGCAUCUCUGAGAGAAAUGCC [U1C A30U A59G A77G] | 0.11
18 | CACGUAGGUGGUUUUCCCCUGGUAGCGCUAAGGGGGCCUGGAAGUUUGGACUGGGCAGAGCUCAACACAGCGUGGCAAAGUGGCUGUGGCUAGACUGCCUCUCUGGAUUCCUCGUCACUCAGCAGGGCAUCUCUGAGAGAAAUGCC [U1C A22G U26C] | 0.95
19 | CACGUAGGUGGUUUUCCCCUGAUAGUGCUAAGGGGGCCUGGAGGUUUGGUCUGGGCAGAGCUCAACACAGCGUGGCAAAGUGGCUGUGGCUAGACUGCCUCUCUGGAUUCCUCGCCACUCAGCAGGGCAUCUCUGAGAGAAAUGCC [U1C A43G A50U U115C] | 0.62
20 | CACGUAGGUGGUUUUCCCCUGAUAGUGCUGAGGGGGCCUGGAAGUUAGGACUGGGCAGAGCUCAACACAGCGUGGCAAAGUGGCUGUGGCUAGACUGCCUCUCUGGAUUCCUCGUCACUCAGCAGGGCAUCUCUGAGAGAAAUGCC [U1C A30G U47A] | 0.97

Row | Variant | self-cleavage
21 | CACGUGGGUGGUUUUCCCCUGAUAGUGCUAAGGGGGCCUGGAAGUUUGGACAGGGCAGAGCACAACCCAGCGUGGCAAAGUGGCUGUGGCUAGACUGCCUCUCUGGAUUCCUCGUCACUCAGCAGGGCAUCUCUGAGAGAAAUGCC [U1C A6G U52A U62A A67C] | 0.21
22 | CACGUAGGUGGUUUUCCCCUGGUAGUGCUAAGGGGGCCUGGAAGUUUGGACUGGGCAGAGCUCAACACAGCGUGGCAAAUUGGCUGUGGCUAGACUGCCUCUCUGGAUUCCUCGUCGCUCAGCAGGGCAUCUCUGAGAGAAAUGCC [U1C A22G G80U A117G] | 1.1
23 | CACGUAGGUGGUUUUCCCCUGAUAGUGCUAAGGGGGCCUGGGAGUUUGGACCGGGCAGAGCUCGACACAGCGUGGCAAAGUGGCUGUGGCUAGACUGCCUCUCUGGAUUCCUCGUCACUCAGCAGGGCAUCUCUGAGAGAAAUGCC [U1C A42G U52C A64G] | 1.48
24 | CACGUAGGUGGUUUUCCCCUGAUAGUGCUAAGGGGGCCUGGGAGUUUGGACUGGGCAGAGCCCAGCACAGCGUGGCAAAGUGGCUGUGGCUAGACUGCCUCUCUGGAUUCCUCGUCACUCAGCAGGGCAUCUCUGAGAGAAAUGCC [U1C A42G U62C A65G] | 0
25 | CACGUAGGUGGUUUUCCCCUGAUAGUGCUGAGGGGGCCUGGAAGUUUGGACUGGGCAGAGCUCAACGCAGCGUGGCAAAGUGGCUGUGGCUAGACUGCCUCUCUGGAUUCCUCGUCACUCAGCAGGGCAUCUCUGAGAGAAAUGCC [U1C A30G A67G] | 0
26 | CGCGUAGGUGGUUUUCCCCUGAUAGUGCUAAGGGGGCCUGGAAGUUUGGACUGGGCAGAGCUCAACACAGCGUGGCAAAGUGGCUGUGGCUAGACUGCCUCUCUGGAUUCCUCGUCACUCAGCAGGGCAUCUCUGAGAUAAAUGCC [U1C A2G G139U] | 0.85
27 | CUCGUAGGUGGUUUUCCCCAGAUAGUGCUAAGGGGGCCUGGAAGUUUGGACUGGGCAGAGCUCAACACAGCGUGGCAAAGUGGCUGUGGCUAGACUGCCUCUCUGGAUUCCUCGUCACUCAGCAGGGCAUCUCUGAGAGAAAUGCC [U1C A2U U20A] | 0.6
28 | CACGUAGGUGGUUUUCCCCUGAUAGUGCUAAGGGGGCCUGGGAGUUUGGACUGGGCAGAGCUCAACACAGCGUGGCAAAGUGGCUGUGGCUAGACUGCCUCUCUGGAUUCCUCGUCACUCAGCAGGGCACCUCUGAGAGAAAUGCC [U1C A42G U130C] | 0.71
29 | CACGUAGGUGGUUUUCCCCUGUUAGUGCUAAGGGGGCCUGGAAGUUUGGACUGGGCGGAGCUCAACACAGCGUGGCAAAGUGGCUGUGGCUAGACUGCCUCUCUGGAUUCCCCGUCACUCAGCAUGGCAUCUCUGAGAGAAAUGCC [U1C A22U A57G U112C G125U] | 0.68
30 | CACGUAGGUGGUUUUCCCCUGGUAGUGCUAAGGGGGCCUGGAAGUUUGGACUGGGCAGAGCUCAACACAGCGUGGCAAAGUGGCUGUGGCUAGACUGCCUCUCUGGAUUCCUCGUCACUCAGCAGGGCAUUUCUGAGAGAAAUGCC [U1C A22G C131U] | 0.49
31 | CACGUAGGUGGUUUUCCCCUGAUAGUGCUAAGGGGGCCUGGAAGUUUGGUCUGGGCAGAGCUCCACACAGCGUGGCAAAGUGGCUGUGGCUAGACUGCCUCUCUGGAUUCCUCGCCACUCAGCAGGGCAUCUCUGAGAGAAGUGCC [U1C A50U A64C U115C A142G] | 0
32 | CACGUGGGUGGUUUUCCCCUGAUAGUGCUAAGGGGGCCUGGAAGUUUGGACUGGGCAGAGCUCAACACAGCGUGGCAAAGUGGCUGUGGCUAGACUGCCUCUCUGGAUUCCUCGCCACUCAGCAGGGCAUCUCUGAGAGAAAUGCC [U1C A6G U115C] | 0.77
33 | CACGUUGGUGGUUUUCCCCUGAUAGUGCUAAGGGGGCCUGGAAGUUUGGACUGGGCAGAGCUCAACACAGCGUGGCAAAGUGGCUGUGGCUAGACUGCCUCUCUGGAUUCCUCGUCACUCAGCAGGGCAUCUCUGAGGGAAACGCC [U1C A6U A138G U143C] | 1.44
34 | CACGUAGGUGGUUUUCCCCUGAUAGUGCUAAGGGGGCCUGGUGGUUUGGACUGGGCAGAGCUCAACACAGCGUGGCUAAGUGGCUGUGGCUAGACUGCCUCUCUGGAUUCCUCGUCACUCAGCAGAGCAUCUCUGAGAGAAAUGCC [U1C A42U A43G A77U G126A] | 0.63
35 | CACGUAGGUGGUUUUCCCCUGAUAGUGCUAAGGGGGCCUGGAAGUUUGGACUGGGCAGAGCUCAGCACAGCGUGGCAAAGUGGCUGUGGCUAGACUGCCUCUCUGGAUUCCUCGUCACUCGGCAGGGCAUCUCUGAGAGAAAUGCC [U1C A65G A121G] | 0.38
36 | CACGUAGGUGGUUUUCCCCUGAUAGUGCUAAGGGGGCCUGGAGGUUUGGACUGGACAGAGCUCUACACAGCGUGGCAAAGUGGCUGUGGCUAGACUGCCUCUCUGGGUUCCUCGUCACUCAGCAGGGCAUCUCUGAGAGAAAUGCC [U1C A43G G55A A64U A107G] | 0.24
37 | CACGUAGGUGGUUUUCCCCUGAUAGUGCUAAGGGGGCCUGGUAGUUUGGACUGGGCAGAGCUCAACACAGCGUGGCAAAGUGGCUGUGGCUAGACCGCCUCUCUGGAUUCCUCGUCACUCAGCAGGGCAUCUCUGAGAGAAAUGCC [U1C A42U U96C] | 0.11
38 | CACGUAGGUGGUUUUCCCCUGAUAGUGCUGAGGGGGCCUGGAAGUUUGGACUGGGCAGAGCUCAACACAGCGUGGCAAAGUGGCUGUGGCUAGACUGCCUCUCUGGAUACCUCGCCACUCAGCAGGGCAUCUCUGAGAGAAAUGCC [U1C A30G U109A U115C] | 1.88
39 | CACGUAGGUGGUUUUCCCCUGAUAGUGCUAAGGGGGCCUGGAGGUUUGGACUGGGCAGAGCUCAACACAGCGUGGCAUAGUGGCUGUGGCUAGACUGCCUCUCUGGAUUCCUCGUCACUCAGCUGGGCAUCUCUGAGAGUAAUGUC [U1C A43G A78U A124U A140U C145U] | 1.34
